Data: PubChem BioAssay AID1347120 (National Center for Advancing Translational Sciences (NCATS), 2019)
Out of some 390,000 compounds screened, about 930 (0.24%) were called active. The inconclusive results got no clear call from the source; some entries with a clear call stand among them for comparison. Calls follow the shape of the dose curve; as a rule, active = well fitted activation curve with a large enough effect; inconclusive = small, poorly fitted or top-dose-only effect; inactive = no such curve, though single readings can be large or run the other way. Potencies of inconclusive entries are doubtful fits and often do not repeat. Numbered stars: 1 amine (or outer) side, 2 acyl side, 3 side chain; on linkers, the order of the positions; unused ones are H or OH. Square brackets hold non-standard residues; d marks the D form. Peptide text beside a SMILES is read from it. ξ: configuration not given here. X5 = CCCCCCC[C@H](O)C[C@@H](N[*:1])[C@@H](O)C(=O)[*:2]; X7 = COc1ccc(CCCC(N[*:1])C(=O)[*:2])cc1; ξThr(3R) = C[C@@H](O)C(N)C(=O)O; NMeN = CN[C@@H](CC(N)=O)C(=O)O; X6 = C/C=C(/N[*:1])C(=O)[*:2]; Dhb = C/C=C(\N)C(=O)O; Sar = CNCC(=O)O

test: qHTS for Suppressors of FUS Proteinopathy: Primary screen using FUS-linked yeast assay; also: nearly all actives have a fitted effect of over 55% in size;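 as to growth rescue (activation): plate controls were DMSO vehicle for no effect and reference control for full effect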; conditions: S. cerevisiae FUS-expressing, OD600, 24 h; Potency: growth rescue; growth rescue (activation): at 76.6 µM (top of the series)
Outline: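 Compound concentration series was pinned onto galactose-induced FUS-expressing yeast seeded at OD 0.005. Plates sat 24hr at 30C; absorbance at 600 nm gave growth. DMSO served as background control.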
Potency is read from the fitted curve at half-maximal effect; tags tell the direction and shape of the fitted curve.

SMILES | Potency | growth rescue (activation)
O=C(OC12CCCN(C1)/C(=C/c1ccc(Cl)cc1)C2)c1ccc(F)cc1 (stereo unspecified) | inconclusive: 50.1 µM [activator, single point] | –
C/C(CCN1CCc2nc(-c3ccccc3)c(-c3ccccc3)cc2C1)=N\OC[C@@H](C)[C@H](OCc1ccccc1)C(C)C | inconclusive: 25.1 µM [activator, single point] | –
CCOC(=O)[C@]12CCCC3=C1N(CCC3)C(=O)[C@@H](CC(=O)N1CCCC1)C2 | inactive | –
COc1cccc2cc(C(=O)C3=C(O)C(=O)N(CCN4CCOCC4)C3c3cccc(Cl)c3)oc12 (stereo unspecified) | inconclusive: 44.7 µM [activator, partial curve, poor fit] | –
CCOc1cc(/C=C/C(=O)Nc2ccc(C(=O)NCCN(CC)CC)cc2)ccc1OCC(C)C | inconclusive: 31.6 µM [activator, single point] | –
CC(=O)Nc1ccc(S(=O)(=O)NCC2CCC(C(=O)NCCN(CC(C)C)CC(C)C)CC2)cc1 (stereo unspecified) | inactive | –
COc1ccc(Cn2c(C(=O)O)c(CNCCc3cc(OC)ccc3OC)c3ccc(C)cc32)cc1 | active: 28.2 µM | –
COc1ccc([C@H]2C[C@@H](n3cc(COC(=O)c4ccccc4)nn3)[C@H](O)CN2C(=O)C2CCCCC2)cc1 | inconclusive: 17.8 µM [activator, single point] | –
CCN1CCN(Cc2ccc(NC(=O)c3cc(NC(=O)c4cnnc5ccccc45)cc(OC)c3)cc2C(F)(F)F)CC1 | inconclusive: 28.2 µM [activator, partial curve, poor fit] | –
CC(C)(C)c1ccc(OCCC(=O)NCCc2ccc(S(N)(=O)=O)cc2)cc1 | inactive | –
CCCS(=O)(=O)NCCc1sc2nc(-c3ccc(F)cc3)nn2c1C | inactive | –
O=C(CSc1ncc(S(=O)(=O)c2ccc(Cl)cc2)c(=O)[nH]1)Nc1cccc(C(F)(F)F)c1 | inactive | –
CCC/C=C/c1ccc(CN2C(C(C)C)C(=O)N(Cc3cn(CC4CCCCC4)nn3)CCS2(=O)=O)cc1 (stereo unspecified) | inconclusive: 15.8 µM [activator, partial curve] | –
O=C(Nc1nc2c(s1)CN(Cc1ccccc1)CC2)c1cccc(S(=O)(=O)N2CCc3ccccc32)c1 | inconclusive: 39.8 µM [activator, partial curve, poor fit] | –
CCc1nc2sc(C(C)=O)c(N)c2c2c1CCCC2 | inactive | –
Nc1c(Nc2ccccc2)c2ccccc2oc1=O | inactive | –
COc1cccc(C(=O)/C=C/Nc2ccc(S(=O)(=O)Nc3cnc4ccccc4n3)cc2)c1 | inactive | –
c1nc(N2CCN(Cc3ccc4c(c3)OCO4)CC2)c2[nH]cnc2n1 | inactive | –
Cc1ccc(CN2C(=O)CCSc3ccc(Cl)cc32)cc1 | inconclusive: 0.794 µM [activator, full curve, poor fit] | –
CCCCCCN1C[C@H](n2cc(-c3ccc(F)cc3)nn2)[C@@H](O)C[C@@H]1c1ccc(OC)cc1 | inconclusive: 25.1 µM [activator, partial curve, poor fit] | –
CC(C)Oc1ccc(-c2nc3c(C#N)c[nH]n3c2NC2CCCCC2)cc1 | inactive | –

SMILES | Potency | growth rescue (activation)
O=C(NC(Cc1c[nH]c2ccccc12)C(=O)N/N=C/c1cccc2ccccc12)c1cccs1 (stereo unspecified) | inconclusive: 5.01 µM [activator, full curve, poor fit] | –
C/C=C1\NC(=O)[C@H](CC(N)=O)N(C)C(=O)C([C@@H](C)O)NC(=O)C(CCCc2ccc(OC)cc2)NC(=O)[C@H](C(C)C)NC(=O)/C(=C\C)NC(=O)[C@H](O)[C@@H](C[C@@H](O)CCCCCCC)NC(=O)[C@H](C)NC(=O)CN(C)C(=O)[C@H](CCC(N)=O)NC1=O (stereo partly drawn) (cyclo(A[X5][X6]V[X7][ξThr(3R)][NMeN][Dhb]Q[Sar])) | inconclusive: 28.2 µM [activator, partial curve, poor fit] | –
CCn1cc2nc(SCC(=O)Nc3ccccc3C(F)(F)F)n(Cc3ccc(C)cc3)c(=O)c2n1 | inconclusive: 31.6 µM [activator, partial curve, poor fit] | –
Cc1ccccc1C(=O)n1nc(-c2cccnc2)nc1NCc1ccccc1 | inconclusive: 39.8 µM [activator, single point] | –
Cc1ccccc1N=C/C=C1\N(C)c2ccccc2C1(C)C | – | inconclusive: 79.9% [activator]
Cc1cccc(N2CCN(C(=O)CCC(=O)N3CCOc4ccc(Cl)cc43)CC2C)c1 (stereo unspecified) | inconclusive: 28.2 µM [activator, single point] | –
C[C@H]1CN([C@@H](C)CO)C(=O)Cc2cc(NC(=O)Cc3cn(C)c4ccccc34)ccc2O[C@@H]1CN(C)S(=O)(=O)c1cn(C)cn1 | inconclusive: 28.2 µM [activator, single point] | –
Cc1cccc(-c2nnc(NC(=O)c3cccs3)s2)c1 | inactive | –
O=C(Nc1nnc(-c2ccc(Cl)cc2)o1)NC1CCCCC1 | inconclusive: 3.55 µM [activator, partial curve, poor fit] | –
COc1ccc(Nc2cc3n(c(=O)n2)CCc2cc(OC)c(OC)cc2-3)c(C)c1 | inactive | –
Cc1ccccc1CN1C(=O)c2ccccc2S(=O)(=O)c2ccc(C(=O)OCC3CCCO3)cc21 (stereo unspecified) | inactive | –
Cc1cc(C(=O)N/N=C2\CCCC(C)C2)n[nH]1 (stereo unspecified) | – | inconclusive: 2.86% [activator]
CCOC(=O)N1CCN(S(=O)(=O)c2ccc(OC)c3ccccc23)CC1 | inactive | –
NC(=O)C1CCN(Cc2nc3cc(C(F)(F)F)ccc3c(=O)[nH]2)CC1 | inconclusive: 10 µM [activator, partial curve, poor fit] | –
COC(=O)c1ccc(C2Nc3ccc(/C(C)=N/NC(=O)C(OC)c4ccccc4)cc3C3C=CCC32)cc1 (stereo unspecified) | active: 4.47 µM | –
O=c1cc(C(O)C[N+](=O)[O-])occ1OCc1ccccc1 (stereo unspecified) | active: 31.6 µM | –
Cc1cccc(N2CCN(C(=O)CS(=O)(=O)c3cccc4nsnc34)CC2C)c1 (stereo unspecified) | inactive | –
COc1ccc(-c2cn3c(C)c(C(=O)N4CCN(c5ccccc5F)CC4)sc3n2)cc1 | inconclusive: 50.1 µM [activator, single point] | –
COC(=O)[C@@]1(Cc2ccc(OC)cc2)[C@H]2c3cc(C(=O)N(C)C)n(Cc4ccc(OC(F)(F)F)cc4)c3C[C@H]2CN1C(=O)c1ccccc1 | inconclusive: 20 µM [activator, partial curve, poor fit] | –
COc1cccc(-c2sc3ccc(OC)cc3c2C#CC(C)(C)O)c1 | inconclusive: 50.1 µM [activator, single point] | –
CCCNC(=O)c1ccc(-n2c(-c3ccccc3)cc3c2CCC(C)C3)cc1 (stereo unspecified) | inconclusive: 50.1 µM [activator, single point] | –

SMILES | Potency | growth rescue (activation)
CCOc1ccccc1NC(=O)c1c(NCc2sccc2C)sc2c1CCCCC2 | inconclusive: 31.6 µM [activator, single point] | –
CCN(CC)CCOC(=O)c1ccc(NC(=O)c2cn(-c3ccccc3)nc2-c2cccs2)cc1 | inconclusive: 25.1 µM [activator, single point] | –
Cc1ccc(-c2cc(C(F)F)n3ncc(C(=O)N4CCCc5ccccc54)c3n2)cc1 | inactive | –
O=C([C@@H]1C[C@H]1c1ccccc1)N1CC[C@H]2[C@H](CCCN2Cc2cc(F)cc(F)c2)C1 | inactive | –
COc1ccc2nc3oc(C(=O)NCc4ccccc4OC)cc3cc2c1 | inactive | –
C[C@@H]1CCN(C2CC2)S(=O)(=O)c2c(cccc2N2CCC[C@H]2CO)O1 | inactive | –
COc1ccccc1CCNC(=O)C(=O)NCC(c1ccco1)S(=O)(=O)c1ccc(C)cc1 (stereo unspecified) | inconclusive: 28.2 µM [activator, single point] | –
COc1ccccc1CNC(=O)COC(=O)C1CCN(c2ccc(C(F)(F)F)cn2)CC1 | inconclusive: 28.2 µM [activator, partial curve, poor fit] | –
COc1ccc(CC(N)c2csc(NC(=O)c3cc(C(C)(C)C)nn3Cc3ccccc3)n2)cc1 (stereo unspecified) | inconclusive: 50.1 µM [activator, single point] | –
Cc1cc(NC(=O)Nc2nc3c(s2)CCCCCC3)ccc1Br | inactive | –
COc1ccccc1-c1ccc(/C=C2\C=CC(=O)O2)o1 | inconclusive: 35.5 µM [activator, partial curve, poor fit] | –
Cc1ccc(CNC(=O)CCS(=O)(=O)c2cc(Br)cc3c2N(C(=O)C2CC2)CC3)cc1 | inconclusive: 50.1 µM [activator, single point] | –
O=C(c1ccco1)N1CCN(S(=O)(=O)c2cc(Cl)ccc2Cl)CC1 | inactive | –
C[C@H](O)[C@@H]1C(=O)N2CCc3ccc(-c4ccccc4)cc3[C@@H]2C[C@@H]1N(C)C(=O)Nc1cc(Cl)cc(Cl)c1 | inconclusive: 22.4 µM [activator, single point] | –
O=C(Nc1ccc(Cl)cc1)N1CCN(c2ccc3nnc(-c4ccc(F)cc4)n3n2)CC1 | inconclusive: 44.7 µM [activator, single point] | –
Cc1ccc(-n2nc(CO)c(C(=O)NCc3cccs3)n2)cc1 | inactive | –
Cc1noc(C)c1S(=O)(=O)Nc1ccc2c(c1)C(=O)N([C@H](C)CO)C[C@H](C)[C@H](CN(C)S(=O)(=O)c1ccc(Cl)cc1)OCCCC[C@@H](C)O2 | inconclusive: 31.6 µM [activator, partial curve, poor fit] | –
Cc1ccc(C(=O)Nc2ccccc2N2CCN(C(=O)C(C)C)CC2)cc1C | inconclusive: 39.8 µM [activator, single point] | –
COC(=O)c1ccc(/C=C/C(=O)OCC(=O)Nc2ncc(Cl)cc2Cl)cc1 | inconclusive: 20 µM [activator, single point] | –
